For 66 cell lines, AUC and IC50 results are on record in the supplement of paper PMC4967469.

For orientation: IC50 means the midpoint of a concentration-inhibition curve.

IC50 is the fitted dose that halves viability relative to control wells, and lower means more sensitive; fits outside the tested doses are given as limits. The AUC spans the tested range (256-fold, ending at the top dose) of the same fit; values near 1 show little effect. A top dose marked as inferred was calculated from the reported fits.

Compound in the assay: CC1=C(C(=O)Nc2cc3cn[nH]c3cc2F)C(c2ccc(C(F)(F)F)cc2)CC(=O)N1 [GSK429286A]
Description: Viability of human cancer cell lines after 72 h of drug (GDSC screen). The conditions noted are these: top dose inferred. Here is the method: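 Human cancer cell lines in 384-well plates, medium with 10% serum, drug for 72 h over a 256-fold dose range (nine 2-fold or five 4-fold steps up to the top dose). Adherent lines were fixed and stained with the nucleic acid dye Syto60, suspension lines read with resazurin; signal relative to control wells, capped at 0 and 100%. One two-parameter sigmoid per drug and line, fitted in a mixed model over all curves with the slope shared within a line.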
As to “CAS-1 (glioma, adherent, top dose 20 µM)”, the AUC came out at 0.874 and the half-maximal inhibitory concentration (IC50) is greater than 20 µM.

With “CCF-STTG1 (glioma, adherent, top dose 20 µM)”, the AUC was determined as 0.985 and the concentration for half-maximal inhibition (IC50) was greater than 20 µM.

With “CCK-81 (large intestine, adherent, top dose 20 µM)”, the AUC turned out to be 0.99 and the IC50 was greater than 20 µM.

For the cell line “CCRF-CEM (lymphoblastic leukaemia, suspension, top dose 20 µM)”, the AUC was determined as 0.95 and the 50% inhibitory concentration (IC50) is greater than 20 µM.

As for “CESS (acute myeloid leukaemia, suspension, top dose 20 µM)”, the AUC came out at 0.951 and the half-maximal inhibitory concentration (IC50) is greater than 20 µM.

As for “CFPAC-1 (pancreas, adherent, top dose 20 µM)”, the AUC was 0.961 and the 50% inhibitory concentration (IC50) is greater than 20 µM.

As to “CGTH-W-1 (thyroid, adherent, top dose 20 µM)”, the AUC came to 0.983 and the 50% inhibitory concentration (IC50) is greater than 20 µM.

Consider “CHL-1 (melanoma, adherent, top dose 20 µM)”, for which the AUC turned out to be 0.982 and the concentration for half-maximal inhibition (IC50) was greater than 20 µM.

Take “CHP-134 (neuroblastoma, suspension, top dose 20 µM)”: the AUC stood at 0.572 and the IC50 was found to be 2.07 µM.

Turning to “CHP-212 (neuroblastoma, adherent, top dose 20 µM)”, the AUC amounted to 0.89 and the concentration for half-maximal inhibition (IC50) was greater than 20 µM.

On to “CHSA0011 (chondrosarcoma, adherent, top dose 20 µM)”, for which the AUC is 0.944 and the half-inhibitory concentration (IC50) is greater than 20 µM.

Regarding “CHSA0108 (chondrosarcoma, adherent, top dose 20 µM)”, the AUC was 0.582 and the half-inhibitory concentration (IC50) was found to be 2.18 µM.

For “CHSA8926 (chondrosarcoma, adherent, top dose 20 µM)”, the AUC was determined as 0.807 and the IC50 stood at 16 µM.

For the cell line “CL-11 (large intestine, adherent, top dose 20 µM)”, the AUC was determined as 0.987 and the IC50 was greater than 20 µM.

As for “CMK (acute myeloid leukaemia, suspension, top dose 20 µM)”, the AUC was found to be 0.875 and the IC50 was found to be 14.6 µM.

As to “COLO-205 (large intestine, suspension, top dose 20 µM)”, the AUC was 0.987 and the half-inhibitory concentration (IC50) was greater than 20 µM.

For the cell line “COLO-320-HSR (large intestine, suspension, top dose 20 µM)”, the AUC is 0.981 and the IC50 was greater than 20 µM.

With “COLO-668 (small cell lung carcinoma, adherent, top dose 20 µM)”, the AUC came to 0.921 and the IC50 is greater than 20 µM.

Regarding “COLO-678 (large intestine, semi-adherent, top dose 20 µM)”, the AUC turned out to be 0.982 and the concentration for half-maximal inhibition (IC50) was greater than 20 µM.

For the cell line “COLO-679 (melanoma, adherent, top dose 20 µM)”, the AUC was 0.981 and the half-maximal inhibitory concentration (IC50) was greater than 20 µM.

With “COLO-680N (oesophagus, adherent, top dose 20 µM)”, the AUC turned out to be 0.986 and the IC50 was greater than 20 µM.

In the case of “COLO-684 (endometrium, suspension, top dose 20 µM)”, the AUC is 0.967 and the IC50 is greater than 20 µM.

Regarding “COLO-783 (melanoma, adherent, top dose 20 µM)”, the AUC was found to be 0.991 and the IC50 is greater than 20 µM.

For the cell line “COLO-792 (melanoma, adherent, top dose 20 µM)”, the AUC stood at 0.972 and the IC50 is greater than 20 µM.

With “COLO-800 (melanoma, adherent, top dose 20 µM)”, the AUC amounted to 0.978 and the half-maximal inhibitory concentration (IC50) is greater than 20 µM.

On to “COLO-824 (breast, adherent, top dose 20 µM)”, for which the AUC turned out to be 0.982 and the 50% inhibitory concentration (IC50) is greater than 20 µM.

In the case of “COLO-829 (melanoma, adherent, top dose 20 µM)”, the AUC was found to be 0.949 and the IC50 is greater than 20 µM.

On to “COR-L23 (large cell lung carcinoma, adherent, top dose 20 µM)”, for which the AUC worked out at 0.942 and the IC50 is greater than 20 µM.

“COR-L88 (small cell lung carcinoma, adherent, top dose 20 µM)”: the AUC turned out to be 0.964 and the IC50 was greater than 20 µM.

With “COR-L95 (small cell lung carcinoma, adherent, top dose 20 µM)”, the AUC was found to be 0.97 and the half-inhibitory concentration (IC50) is greater than 20 µM.

Turning to “COR-L105 (lung adenocarcinoma, adherent, top dose 20 µM)”, the AUC was determined as 0.915 and the IC50 is greater than 20 µM.

Turning to “COR-L279 (small cell lung carcinoma, suspension, top dose 20 µM)”, the AUC worked out at 0.944 and the IC50 is greater than 20 µM.

For the cell line “COR-L303 (small cell lung carcinoma, suspension, top dose 20 µM)”, the AUC turned out to be 0.949 and the 50% inhibitory concentration (IC50) was greater than 20 µM.

Consider “COR-L311 (small cell lung carcinoma, suspension, top dose 20 µM)”, for which the AUC stood at 0.692 and the IC50 amounted to 4.51 µM.

As to “COR-L321 (lung, suspension, top dose 20 µM)”, the AUC turned out to be 0.953 and the IC50 was greater than 20 µM.

With “CP50-MEL-B (melanoma, adherent, top dose 20 µM)”, the AUC amounted to 0.987 and the IC50 is greater than 20 µM.

For the cell line “CP66-MEL (melanoma, adherent, top dose 20 µM)”, the AUC worked out at 0.984 and the half-maximal inhibitory concentration (IC50) is greater than 20 µM.

Take “CPC-N (small cell lung carcinoma, suspension, top dose 20 µM)”: the AUC came out at 0.978 and the IC50 was greater than 20 µM.

Regarding CS1 (bone, adherent, top dose 20 µM), the AUC amounted to 0.948 and the half-inhibitory concentration (IC50) was greater than 20 µM.

Take “CTB-1 (B-cell lymphoma, suspension, top dose 20 µM)”: the AUC came to 0.968 and the IC50 is greater than 20 µM.

As for “CTV-1 (acute myeloid leukaemia, suspension, top dose 20 µM)”, the AUC came out at 0.903 and the IC50 came out at 17.1 µM.

As for “CW-2 (large intestine, adherent, top dose 20 µM)”, the AUC was 0.965 and the IC50 is greater than 20 µM.

With “Ca9-22 (head and neck, adherent, top dose 20 µM)”, the AUC is 0.975 and the half-inhibitory concentration (IC50) was greater than 20 µM.

For “Ca-Ski (cervix, adherent, top dose 20 µM)”, the AUC turned out to be 0.934 and the IC50 was greater than 20 µM.

As for “CaR-1 (large intestine, adherent, top dose 20 µM)”, the AUC was determined as 0.976 and the IC50 was greater than 20 µM.

Consider “Calu-3 (lung adenocarcinoma, adherent, top dose 20 µM)”, for which the AUC came to 0.983 and the IC50 is greater than 20 µM.

For the cell line “Calu-6 (lung adenocarcinoma, adherent, top dose 20 µM)”, the AUC worked out at 0.975 and the half-maximal inhibitory concentration (IC50) was greater than 20 µM.

For “Caov-3 (ovary, adherent, top dose 20 µM)”, the AUC was 0.99 and the 50% inhibitory concentration (IC50) is greater than 20 µM.

Take “Caov-4 (ovary, adherent, top dose 20 µM)”: the AUC stood at 0.98 and the concentration for half-maximal inhibition (IC50) was greater than 20 µM.

Consider “Capan-2 (pancreas, adherent, top dose 20 µM)”, for which the AUC is 0.985 and the concentration for half-maximal inhibition (IC50) was greater than 20 µM.

Take “ChaGo-K-1 (non-small cell lung carcinoma, adherent, top dose 20 µM)”: the AUC came to 0.961 and the IC50 is greater than 20 µM.

Regarding “D-247MG (glioma, adherent, top dose 20 µM)”, the AUC is 0.97 and the half-maximal inhibitory concentration (IC50) is greater than 20 µM.

As to “D-263MG (glioma, adherent, top dose 20 µM)”, the AUC worked out at 0.972 and the IC50 is greater than 20 µM.

Take “D-283MED (medulloblastoma, adherent, top dose 20 µM)”: the AUC was 0.991 and the concentration for half-maximal inhibition (IC50) is greater than 20 µM.

On to “D-336MG (glioma, adherent, top dose 20 µM)”, for which the AUC was determined as 0.874 and the IC50 is greater than 20 µM.

As for “D-392MG (glioma, adherent, top dose 20 µM)”, the AUC is 0.959 and the half-inhibitory concentration (IC50) is greater than 20 µM.

Turning to “D-423MG (glioma, adherent, top dose 20 µM)”, the AUC is 0.895 and the 50% inhibitory concentration (IC50) was greater than 20 µM.

Take “D-502MG (glioma, adherent, top dose 20 µM)”: the AUC amounted to 0.962 and the IC50 is greater than 20 µM.

Take “D-542MG (glioma, adherent, top dose 20 µM)”: the AUC is 0.978 and the 50% inhibitory concentration (IC50) is greater than 20 µM.

Take “D-566MG (glioma, adherent, top dose 20 µM)”: the AUC is 0.863 and the half-maximal inhibitory concentration (IC50) was 16.8 µM.

Consider “DAN-G (pancreas, adherent, top dose 20 µM)”, for which the AUC was determined as 0.985 and the half-inhibitory concentration (IC50) is greater than 20 µM.

For the cell line “DB (B-cell lymphoma, suspension, top dose 20 µM)”, the AUC worked out at 0.941 and the IC50 was greater than 20 µM.

Consider “DBTRG-05MG (glioma, adherent, top dose 20 µM)”, for which the AUC was found to be 0.973 and the IC50 is greater than 20 µM.

In the case of “DEL (lymphoid neoplasm, suspension, top dose 20 µM)”, the AUC was found to be 0.964 and the IC50 is greater than 20 µM.

Regarding “DG-75 (Burkitt lymphoma, suspension, top dose 20 µM)”, the AUC is 0.982 and the IC50 is greater than 20 µM.

Regarding DJM-1 (skin, adherent, top dose 20 µM), the AUC was 0.988 and the IC50 is greater than 20 µM.
